Results published in PubChem BioAssay AID504706 (National Center for Advancing Translational Sciences (NCATS), 2011).
Out of some 320,000 compounds screened, about 200 (0.062%) were called active. Inconclusive means that the source gave no clear call. Such entries were picked first, then a sample of the others. The call rests on the fitted dose curve; in most records, active means well fitted activation curve with a large enough effect; inconclusive means small, poorly fitted or top-dose-only effect; inactive means no such curve, though single readings can be large or run the other way. No potency is given beside an inconclusive call; the fits are too rough.

Experiment: qHTS assay for re-activators of p53 using a Luc reporter; further: nearly all actives have a fitted effect of over 45% in size; on activity change, positive = activation: % of control where 0% means no effect
Details: H1299 p53-A138V BP100-luciferase reporter, luminescence, 24 h; series mostly up to 92.2 µM; activity change, positive = activation: at the top concentration
Outline: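 p53-null H1299 cells stably carrying temperature-sensitive p53-A138V and a BP100-luciferase reporter were pinned with compounds (4-point, 1:5 series) and held 24 hrs at 37 deg C. Luminescence was read 10 min after detection reagent.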
Potency means the concentration at half of the fitted maximal effect; tags describe the fitted curve by direction and shape.

SMILES	activity change, positive = activation	Potency
COc1ccccc1CCNC(=O)C(C)n1nc(C)c2c(C)n(-c3ccccc3)nc2c1=O (stereo not given)	inactive: -12%	–
Cc1ccc(C(=O)c2sc3nc4c(cc3c2N)CCC4)cc1	–	inconclusive [activator, full curve, poor fit]
C[N+](C)(C)CCN1C(=O)CSC1=O	–	inconclusive [activator, single point]
N#C/C(=C\C=C\c1ccccc1)c1nc(-c2ccc3c(c2)OCO3)cs1	inactive: 1.2%	–
O=C(c1cc(-c2ccc(Cl)c(Cl)c2)on1)N1CCCCCC1	–	inconclusive [activator, full curve, poor fit]
CC1CCC(C(=O)NC(C(=O)NCCCN2CCOCC2)C(C)C)CC1 (stereo not given)	–	inconclusive [activator, partial curve, poor fit]
Cc1c(/C=N/NC(=O)c2ccc3c(c2)OCO3)cnn1C	–	inconclusive [activator, single point]
CCOC(=O)c1csc(NC(=O)c2cccs2)n1	–	inconclusive [activator, full curve, poor fit]
CCN(CC)S(=O)(=O)c1ccc(NC(=O)c2cc(-c3cccs3)nc3ccccc23)cc1	inactive: 4.45%	–
Cc1cc([N+](=O)[O-])cc(/C=N\NC(=O)C2COc3ccccc3O2)c1O (stereo not given)	inactive: 5%	–
Oc1ccccc1Nc1nc(NCc2ccccc2)c2ccccc2n1	inactive: 1.6%	–
Cc1ccc(/C=N/NC(=O)c2cc(-c3ccc(C)o3)[nH]n2)cc1	inactive: 4.07%	–
Fc1ccc(Cn2ccc(-c3cnc(-c4ccccc4)s3)n2)cc1	–	inconclusive [activator, full curve, poor fit]
COCc1cc(=O)[nH]c(Nc2nc3ccccc3o2)n1	–	inconclusive [activator, partial curve, poor fit]
Cc1ccc(OC(=O)c2ccc3nc(C)sc3c2)cc1	inactive: 13.1%	–
Cn1ccnc1SCC(=O)Nc1ccc2nc(SCC(=O)NC3CC3)sc2c1	–	inconclusive [activator, partial curve, poor fit]
O=C(Nc1ccc2[nH]ccc2c1)c1cccs1	–	inconclusive [activator, full curve, poor fit]
CCc1ccc(CN(C)C(=O)c2cc(COc3ccc(-n4cncn4)cc3)on2)cc1	–	inconclusive [activator, partial curve, poor fit]
CC(=Nc1ccc(O)cc1)c1sc2ccccc2c1O	–	inconclusive [activator, full curve, poor fit]
CCc1ccc(CCC(=O)Nc2ccccc2C(=O)O)o1	–	inconclusive [activator, partial curve, poor fit]
